The supplement of paper PMC7125110
± gives the standard error. Variants at the background level are over-represented here.

B1: glmS ribozyme (parent)
chain: AUAAAAGCGCCAGAACUACAGAAAUGUAGUUGACGAGGAGGAGGUUUAUCGAAUUUUCGGCGGAUGCCUCCAAA

Variants of: B1
Assay: self-cleavage kobs at 2500 uM GlcN6P; higher = faster cleavage; RNA array
Details: with glucosamine-6-phosphate
Outline: (§1)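 kcat and KM were obtained from weighted Michaelis–Menten fits across concentrations of kobs values. Those came from one- or two-exponential decay fits to per-tile medians normalised to baseline and to non-cleaving reference variants. The variants were barcoded ribozymes transcribed in situ by E. coli RNA polymerase on sequenced MiSeq chips and tracked through a hybridised Cy3 probe at 37 °C, with 40 μM to 10 mM glucosamine-6-phosphate in HEPES/KCl/Mg(OAc)2 buffer flowed in.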

Point of comparison: G13U U57C, “self-cleavage kobs at 2500 uM GlcN6P” value 3.41e-05 ± 1.3e-05 s⁻¹. Against it:
- A14G G32A C34G A53U — lower, < 1e-05 s⁻¹
- C8G C11A C70U — lower, < 1e-05 s⁻¹
- C10G A64G U65G — lower, < 1e-05 s⁻¹
- G13A G38A U55C G60A — lower, < 1e-05 s⁻¹
- C8G A39G — lower, < 1e-05 s⁻¹
- G9U A12G U46C — lower, < 1e-05 s⁻¹
- C10G G29A C61G G63U — lower, < 1e-05 s⁻¹
- G7C C8G G32C U54A — lower, < 1e-05 s⁻¹
- A6U A33C A64G C68G C70U — lower, < 1e-05 s⁻¹
- C10U A42C G62A U65G C68U — lower, < 1e-05 s⁻¹
- C11U C16U A36G A52G — lower, < 1e-05 s⁻¹
- G43C U45C A48U — lower, < 1e-05 s⁻¹
- A15G G35C A39C U46A — lower, < 1e-05 s⁻¹
- A12C A52U C67U — 5.4-fold higher, 0.000185 ± 4.2e-05 s⁻¹
- C10U A36C G62U — lower, < 1e-05 s⁻¹
- A36C U55C C67U — lower, < 1e-05 s⁻¹
- U30A A39G A48G C61U — lower, < 1e-05 s⁻¹
- C10A A12U U49A — lower, < 1e-05 s⁻¹
- C11U G29A G51U — lower, < 1e-05 s⁻¹
- A12G C19A A52C — lower, < 1e-05 s⁻¹
- C10G C34G C61U — lower, < 1e-05 s⁻¹
- A6C A12G A53U — lower, < 1e-05 s⁻¹
- C8G G13C A14C U49A A52C C67G C70U — lower, < 1e-05 s⁻¹
- C8A C50A C68A — lower, < 1e-05 s⁻¹
- G7A A33G — lower, < 1e-05 s⁻¹
- A14G C34A U55C G59C C61A — lower, < 1e-05 s⁻¹
- A48C G59U U69C — lower, < 1e-05 s⁻¹
- C8G C16A G29U A33G A36G — lower, < 1e-05 s⁻¹
- A15U C16G G59C — lower, < 1e-05 s⁻¹
- C10U G40A G44C C70A — lower, < 1e-05 s⁻¹
- A6C G35A U49C — lower, < 1e-05 s⁻¹
- U55A G59A G60C — lower, < 1e-05 s⁻¹
- C10G C34A G37A G60U — lower, < 1e-05 s⁻¹
- C11A U45G U46G A53C — lower, < 1e-05 s⁻¹
- G32A G44A C71A — lower, < 1e-05 s⁻¹
- A14G G29C A42U — lower, < 1e-05 s⁻¹
- A6U G38C U47G A52U C68A — lower, < 1e-05 s⁻¹
- G35C G38C — lower, < 1e-05 s⁻¹
- C11G A36U U49G — lower, < 1e-05 s⁻¹
- G13C G29A G40U U56A C70A — lower, < 1e-05 s⁻¹
- U30A G43U C61A C71U — lower, < 1e-05 s⁻¹
- C10A U31A U45G — lower, < 1e-05 s⁻¹
- G7C A36G G37C U56A G66A — lower, < 1e-05 s⁻¹
- A14G A42G A52U — 2.7-fold higher, 9.16e-05 ± 3.3e-05 s⁻¹
- C10U U30C G44A C68A — lower, < 1e-05 s⁻¹
- A6C G29C A33U G37U — lower, < 1e-05 s⁻¹
- G9A A42C C58G C70G — lower, < 1e-05 s⁻¹
- C10U G37U U57A — lower, < 1e-05 s⁻¹
- A15U A36G A64U — lower, < 1e-05 s⁻¹
- C10U G38A U54A — lower, < 1e-05 s⁻¹
- A6G C16G U54C C61A — lower, < 1e-05 s⁻¹
- U31G C34A A64G U69A C70U — lower, < 1e-05 s⁻¹
- C10U A33U G38C U69A — lower, < 1e-05 s⁻¹
- G9A U30G C58G A64G — lower, < 1e-05 s⁻¹
- C16U G51U C61A — lower, < 1e-05 s⁻¹
- C8U A33G A48U U49G C50U — lower, < 1e-05 s⁻¹
- G29U G41C C58A — lower, < 1e-05 s⁻¹
- C16A A36U G37C C58U — lower, < 1e-05 s⁻¹
- A6C A39G — within error, 5.42e-05 ± 1.9e-05 s⁻¹
- U31C A42C U47C C67U — lower, < 1e-05 s⁻¹
- G60A C61U G63A — lower, < 1e-05 s⁻¹
- C8G C16G G40C — lower, < 1e-05 s⁻¹

Variants of: B1
Assay: self-cleavage kobs at 160 uM GlcN6P; higher = faster cleavage; RNA array
Details: with glucosamine-6-phosphate
Outline: as §1

Point of comparison: G9C C50G, “self-cleavage kobs at 160 uM GlcN6P” value 0.00045 ± 0.00018 s⁻¹. Against it:
- C8G A39G — lower, < 1e-05 s⁻¹
- G9U A12G U46C — lower, < 1e-05 s⁻¹
- G9U U49C — lower, < 1e-05 s⁻¹
- G7C C8G G32C U54A — lower, < 1e-05 s⁻¹
- C10U U47G — lower, < 1e-05 s⁻¹
- G43C U45C A48U — lower, < 1e-05 s⁻¹
- A36C U55C C67U — lower, < 1e-05 s⁻¹
- U30A A39G A48G C61U — lower, < 1e-05 s⁻¹
- A52C U57A — lower, < 1e-05 s⁻¹
- U46G C61A C70U — lower, < 1e-05 s⁻¹
- G59U C71U — lower, < 1e-05 s⁻¹
- G32A G51C G66U — lower, < 1e-05 s⁻¹
- A48C G59U U69C — lower, < 1e-05 s⁻¹
- U55A G59A G60C — lower, < 1e-05 s⁻¹
- G37U G62C — lower, < 1e-05 s⁻¹
- G35C G38C — lower, < 1e-05 s⁻¹
- G43C C61U U65G — lower, < 1e-05 s⁻¹
- C10U G37U U57A — lower, < 1e-05 s⁻¹
- C10U A33U G38C U69A — lower, < 1e-05 s⁻¹
- G7A C16U — lower, < 1e-05 s⁻¹
- C34A U57G — lower, < 1e-05 s⁻¹
- G60A C61U G63A — lower, < 1e-05 s⁻¹

Variants of: B1
Assay: self-cleavage kobs at 10000 uM GlcN6P; higher = faster cleavage; RNA array
Details: with glucosamine-6-phosphate
Outline: as §1

Point of comparison: A6C A39G, “self-cleavage kobs at 10000 uM GlcN6P” value 6.11e-05 ± 1.4e-05 s⁻¹. Against it:
- C8G A39G — lower, < 1e-05 s⁻¹
- G9U U49C — lower, < 1e-05 s⁻¹
- A36C U55C C67U — lower, < 1e-05 s⁻¹
- C10A A12U U49A — lower, < 1e-05 s⁻¹
- U55A G59A G60C — lower, < 1e-05 s⁻¹
- U31G C34A A64G U69A C70U — lower, < 1e-05 s⁻¹
- G13U U57C — within error, 3.63e-05 ± 1.8e-05 s⁻¹
